# Reference: PubChem BioAssay AID1347073 (National Center for Advancing Translational Sciences (NCATS), 2019)
# The whole screen tested about 45,000 compounds, of which about 200 (0.44%) were called active. Not shown: some 7% with an inconclusive outcome. The call rests on the fitted dose curve; in most records, active means well fitted activation curve with a large enough effect; inconclusive means small, poorly fitted or top-dose-only effect; inactive means no such curve, though single readings can be large or run the other way. The list shows a part of the results.
# Experiment: qHTS of TDP-43 Inhibitors: NCGC Sytravon Library Screen; further: 0% is about no effect; nearly all actives have a fitted effect of over 55% in size
# Conditions: yeast TDP-43 toxicity rescue, BacTiter-Glo growth, 24 h; series mostly up to 46.1 µM; growth rescue (activation): at the top concentration
# Outline: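 TDP-43-expressing yeast, pregrown in raffinose, seeded at OD600 0.02 in galactose medium with compound for 24 hr at 30 deg C. Growth read by BacTiter-Glo luminescence, so rescue of toxicity appears as activation.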
row,SMILES,growth rescue (activation)
1,COc1ccc(-c2nc(-c3cccc([N+](=O)[O-])c3O)cc(=O)o2)cc1OC,inactive: -1.89%
2,Cc1ccc(NC(=O)CN2C(=O)c3cccnc3Sc3ccccc32)c(Br)c1,inactive: 29.2%
3,COc1ccc2c(c1)-c1nc(NC(=O)c3cccc(Br)c3)sc1CC2,inactive: 15%
4,CCOC(=O)C1CCCN(C(=O)c2ccc(N(C)C)cc2)CC1 (stereo not drawn),inactive: 10.3%
5,N=C1SC(c2ccccc2)C(=O)N1c1ncc(Cc2ccccc2)s1 (stereo not drawn),inactive: 13%
6,Cc1sc2ncnc(SCC(=O)N3c4ccccc4Sc4ccc(Cl)cc43)c2c1C,inactive: 16.7%
7,Oc1ccc(/C=N/n2c(COc3ccccc3)n[nH]c2=S)cc1O,inactive: 7.65%
8,COc1ccc2c(c1)c(=O)oc1c(C)c(OCc3cc(C(=O)O)oc3C)ccc12,inactive: 1.72%
9,COc1ccc(C(=O)N2CCC(C(=O)Nc3ccc(C)cc3)CC2)cc1,inactive: 5.47%
10,CC(=O)N1CCN(c2ccc(NC(=O)C(c3ccccc3)c3ccccc3)cc2)CC1,inactive: 10%
11,CCOC(=O)CN1C(=O)CN(c2ccc(C)c(C)c2)C1=O,inactive: 7.65%
12,COc1ccc(-n2nc(C(=O)NCC(=O)N3CCN(c4cccc(Cl)c4)CC3)c3ccccc3c2=O)c(OC)c1,inactive: 11.1%
13,O=C(Nc1ccc(F)cc1)Nc1cccnc1Cl,inactive: 12.6%
14,COc1ccc(-c2cnc3c(NC=O)cc(-c4ccccc4)cn23)cc1OC,inactive: 5.37%
15,Cc1ccc(C(=O)O)cc1NS(=O)(=O)c1ccc2c(c1)oc(=O)n2C,inactive: 7.05%
16,CCOC(=O)Cn1c(=O)c2c(nc3n2CCCCN3c2ccc(OCC)cc2)n(C)c1=O,inactive: 15.9%
17,CSCC[C@H](NC(=O)OC(C)(C)C)C(=O)N/N=C/c1cc2ccc(C)cc2nc1Cl,inactive: 5.84%
18,COc1ccc(N2Cc3ccccc3C2=NC(=O)c2ccc(C)cc2)cc1OC,inactive: 1.21%
19,O=C(O)c1cc(C(=O)O)cc(-c2ccc(/C=c3/sc4nc5ccccc5n4c3=O)o2)c1,inactive: 5.23%
20,CCNC(=S)Nc1cc(OC)c(NC(=O)c2ccco2)cc1OC,inactive: 5.04%
21,Nc1nc(-c2ccccc2)c(N=Nc2ccc(Cl)cc2)s1,inactive: -3.57%
22,O=C(O)CN1C(c2ccccc2O)Nc2ccc(Br)cc2C1c1ccccc1 (stereo not drawn),inactive: 2.23%
23,NNC(=S)NCc1ccc2c(c1)OCO2,inactive: 7.75%
24,COc1cc(NC(=O)c2cnc(NCc3ccccc3)nc2C)cc(OC)c1OC,inactive: -3.72%
25,COc1ccc(CNC(=O)N2CCc3nc(Nc4cc(OC)c(OC)c(OC)c4)ncc3C2)cc1,inactive: 14.3%
26,CCOC(=O)Cc1csc(SCc2cc(=O)oc3cc(O)ccc23)n1,inactive: 2.23%
27,CN(CC(=O)Nc1ccccc1Cl)C(=O)c1cc(=O)[nH]c2ccccc12,inactive: -1.27%
28,Cc1cc(-c2nn(C)c(=O)c3ccccc23)ccc1CNC(=O)NC1CCCCC1,inactive: -4.37%
